In PubChem BioAssay AID651582 (Sanford-Burnham Center for Chemical Genomics, 2012):
The list shows a part of the results. Shown are side measurements of this screen, not its main read-out; they come without a call. Compounds called inactive in the main read-out are mostly missing here.

Assay: inhibitors of triacylglycerol accumulation, primary screen, cell-based, uHTS, fluorescence, H9c2 (AID 651582)
Conditions: H9c2 cells, Nile Red lipid (TAG) fluorescence; measured here:; at 12.5 µM; cells loaded with 200 µM oleic acid

SMILES | DAPI nuclei signal change (viability), lower = more cytotoxic [%]
COC(=O)Cc1ccc(NC(=O)c2ccc(C(C)(C)C)cc2)cc1 | -8.17
CCOC(=O)c1c(NC(C)=O)sc2c(OCC(O)CN(CC)CC)c(Br)ccc12 (configuration not stated) | -6.93
Cc1nn2c(N3CCCC3)cc(C(C)C)nc2c1-c1ccccc1 | 11.1
COc1cc(-c2cnc3c(NC=O)cc(-c4cccnc4)cn23)cc(OC)c1OC | -25.6
COc1ccc2nc(NC(=O)c3cccc(OCc4c(C)noc4C)c3)sc2c1 | -17.9
CC(C)Cc1nc2sc3c(NCc4ccco4)ncnc3c2c2c1COC(C)(C)C2 | -4.13
CCOc1ccccc1-c1nc(-c2ccc(NC(=O)Cc3ccccc3OC)cc2)no1 | 4.23
CCCCN1C=C(C(=O)OC)C(c2ccccc2C(F)(F)F)C(C(=O)OC)=C1 | 33.1
COc1ccccc1N(/N=C1\Sc2ccccc2C1=O)C(C)=O | -7.23
O=C1c2ccccc2C(=O)c2c1ccc(C(=O)N1CCCCC1)c2NCCO | -5.73
Cc1c(O)ccc(/C=N/Nc2nc(-c3cccnc3)nc3ccccc23)c1O | -23.2
Nc1c(Cl)cc(-c2csc(N3CCCC3c3nc4cc(Cl)c(N5CCCCC5)cc4n3CCOCCO)n2)cc1Cl (configuration not stated) | 4.33
CC(=O)n1cc(N(C(=O)CCl)c2ccc(C)cc2)c2ccccc21 | -22.2
C[C@@]12CCC=C[C@H]1[C@H](c1ccoc1)N(Cc1ccccc1)C2=O | -39.5
CC(C)(C)c1cc[n+](C2=C([O-])c3ccccc3C(=O)/C2=N\S(=O)(=O)c2cccs2)cc1 | -19
N#CC1=C(SCC(=O)c2ccc(Br)cc2)NC2=C(C(=O)CCC2)C1c1ccco1 (configuration not stated) | -18
O=C(Nc1ccccc1)c1ccc(NCC2CCCO2)c(S(=O)(=O)N2CCOCC2)c1 (configuration not stated) | -10.9
O=C1COc2ccc(C(=O)CSc3nc4ccccc4c(=O)n3-c3ccc(Cl)c(Cl)c3)cc2N1 | -47.8
C=CCNc1nc(Nc2ccc(OC)c(OC)c2)c2sc(-c3ccccc3)cc2n1 | -22.1
Cc1ccc(-c2nn(-c3ccccc3)cc2CSC(=N)N)cc1 | -16.5
COc1cc(-c2coc3c(C(=O)NCc4ccc(C(F)(F)F)cc4)cccc23)ccc1O | -49.7
Cc1cc2c(cc1C)CSC(c1ccccc1O)SC2 | -12.8
COc1cccc2sc(Nc3nc(-c4cc5ccccc5oc4=O)cs3)nc12 | 34.9
Cc1ccc2c(=O)n3c(nc2c1)C(Cc1ccc(O)cc1)NC(=O)c1cc2ccccc2cc1-3 (configuration not stated) | -30.8
O=C(N/N=C/c1ccc2c(c1)OCO2)c1cc(-c2ccncc2)nc2ccccc12 | -17.5
CC1=CC(C)(C)Nc2ccc(OC(=O)CCN3C(=O)c4ccccc4C3=O)cc21 | -14.9
COc1ccc(CCNc2nnc(Sc3nnnn3-c3ccccc3)s2)cc1OC | -35.1
